Data reported in paper PMC4336329 (PLoS ONE, 2015).
Among all 310,000 compounds or so, about 2,200 (0.71%) showed an effect of 50% or more. Effects have a minus sign here. Some of the results follow.

molecular target: human ether-à-go-go-related gene (hERG) potassium channel (human, UniProt Q12809); experiment: primary screen, population patch clamp on CHO cells stably expressing hERG
Sequence (Q12809 whole entry, looked up): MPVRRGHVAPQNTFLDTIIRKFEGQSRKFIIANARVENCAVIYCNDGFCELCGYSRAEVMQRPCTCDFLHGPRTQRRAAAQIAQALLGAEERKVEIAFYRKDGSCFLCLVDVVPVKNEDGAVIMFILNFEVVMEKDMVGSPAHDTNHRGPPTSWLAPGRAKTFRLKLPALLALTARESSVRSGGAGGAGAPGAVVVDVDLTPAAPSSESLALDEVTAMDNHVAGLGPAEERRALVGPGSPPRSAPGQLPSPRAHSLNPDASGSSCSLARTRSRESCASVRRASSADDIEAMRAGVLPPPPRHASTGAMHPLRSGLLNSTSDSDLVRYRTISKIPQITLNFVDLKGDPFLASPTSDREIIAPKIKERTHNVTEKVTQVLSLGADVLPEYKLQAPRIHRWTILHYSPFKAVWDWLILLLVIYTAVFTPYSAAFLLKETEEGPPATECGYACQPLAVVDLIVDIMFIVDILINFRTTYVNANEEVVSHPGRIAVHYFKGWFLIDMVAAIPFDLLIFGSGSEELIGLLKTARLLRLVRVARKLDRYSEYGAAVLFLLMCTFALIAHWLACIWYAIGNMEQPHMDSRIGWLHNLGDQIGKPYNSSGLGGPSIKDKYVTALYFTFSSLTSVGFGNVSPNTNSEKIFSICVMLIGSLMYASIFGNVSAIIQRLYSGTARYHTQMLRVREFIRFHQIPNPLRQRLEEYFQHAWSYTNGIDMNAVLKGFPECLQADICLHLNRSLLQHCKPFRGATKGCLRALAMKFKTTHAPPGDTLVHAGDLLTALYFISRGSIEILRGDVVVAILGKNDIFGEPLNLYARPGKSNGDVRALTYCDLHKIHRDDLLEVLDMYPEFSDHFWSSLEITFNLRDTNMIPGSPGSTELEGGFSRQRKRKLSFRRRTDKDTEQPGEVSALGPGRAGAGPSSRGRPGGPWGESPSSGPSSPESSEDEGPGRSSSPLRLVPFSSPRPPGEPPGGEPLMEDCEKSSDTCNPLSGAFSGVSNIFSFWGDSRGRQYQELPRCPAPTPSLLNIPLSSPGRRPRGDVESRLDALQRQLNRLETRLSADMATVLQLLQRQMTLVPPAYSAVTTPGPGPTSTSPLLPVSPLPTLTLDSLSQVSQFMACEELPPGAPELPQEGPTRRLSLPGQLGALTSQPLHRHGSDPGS

Row | SMILES | hERG current change (%, negative = inhibition) at 1uM
1 | Cc1ccc(OCC(=O)OC2CCS(=O)(=O)C2)cc1 (centres unmarked) | 3.88%
2 | O=C(Nc1nc(-c2ccc(S(=O)(=O)N3CCCC3)cc2)cs1)c1cccs1 | 13.7%
3 | CC(=O)Nc1ccc2c(c1)n(C)c(=O)n2C | 13.1%
4 | Cn1c(COc2ccccc2)nnc1SCC(=O)Nc1ccc(S(N)(=O)=O)cc1 | 4.54%
5 | CSC(=NC#N)N1CCN(c2ccc(Cl)cc2)CC1 | -6.45%
6 | CCC(=O)N1CCc2cc(Br)cc(S(=O)(=O)NCC3CCCN3CC)c21 (centres unmarked) | 12.8%
7 | COc1ccc(N2CCC(CNC(=S)Nc3ccc(C)cc3C)C2)cc1 (centres unmarked) | -2.67%
8 | CCCN1C2=NCCN2c2ccccc21.Cl | 0.0662%
9 | CCc1noc(C)c1C(=O)OCC(=O)Nc1ncc(Cl)cc1Cl | 5.65%
10 | CCC(c1nnnn1Cc1ccco1)N(Cc1ccccc1OC)Cc1cc2cc(C)ccc2[nH]c1=O (centres unmarked) | -3.92%
11 | CC(=O)Nc1nc2ccccc2n1Cc1ccc(C)cc1 | 8.6%
12 | CCC1(c2ccccc2)NC(=O)N(C)C1=O (centres unmarked) | -8.19%
13 | COc1ccc(CN2CC(C(=O)NCCCN3CCOCC3)CC2=O)cc1 (centres unmarked) | 12.8%
14 | O=C(COC(=O)c1cc(-c2ccccc2)nc2ccccc12)NCC1CCCO1 (centres unmarked) | 5.02%
15 | COc1ccc(N2CCN(C(=O)COC(=O)CCc3ccccc3)CC2)cc1 | 1.09%
16 | Cc1cc(=O)[nH]c(SCC(=O)Nc2nonc2C)n1 | 13.7%
17 | CN(C(=O)c1ccccn1)c1nnc(-c2cnccn2)s1 | 12.8%
18 | CCOC(=O)c1c(C)c(C(=O)Nc2ccccc2)c(C)n1CC | 10.1%
19 | CCCCn1c(N)c(N(CC(C)C)C(=O)CSCc2cccc(C)c2)c(=O)[nH]c1=O | 16.1%
20 | CCN(CCNC(=O)C1CCN(S(=O)(=O)c2c(C)noc2C)CC1)c1ccccc1 | 3.69%
21 | C/C(=N\NC(=S)Nc1ccc(C)cc1)c1cc2ccccc2o1.CN(C)C=O | 14.1%
22 | O=C(O)c1cn(Cc2ccccc2)nc1-c1ccccc1 | -1.91%
23 | Cc1ccc2[nH]c(O)c(N=Nc3ccccc3C)c2c1 | 16.6%

Row | SMILES | hERG current change (%, negative = inhibition) at 1uM
24 | Cc1occc1C(=O)N/N=C/c1cccnc1 | 7.08%
25 | Cc1cccc2cc(COC(=O)c3cccnc3)c(=O)[nH]c12 | 8.22%
26 | CCCC1C(=O)Nc2ccccc2N1C(=O)c1ccc(C(C)(C)C)cc1 (centres unmarked) | 15.3%
27 | CN(C)c1ccc(CNC(=O)C2CCN(S(=O)(=O)c3ccc4c(c3)oc(=O)n4C)CC2)cc1 | 17.2%
28 | Cc1ccc(S(=O)(=O)Nc2cccc(C(=O)N3CCCC3)c2)cc1F | 7.87%
29 | COC(=O)c1ccc(/C=N/OCC(=O)NC2CCCC(C)C2C)cc1 (centres unmarked) | 6.75%
30 | N#Cc1cc(N2CCOCC2)nc2ccccc12 | 14.4%
31 | COc1ccc(CCNC(=O)C2CC(=O)N(c3ccc(C)cc3)C2)cc1 (centres unmarked) | 13.2%
32 | CCN(CC)CCN(C(=O)CCOc1ccccc1)c1nc2c(F)cc(F)cc2s1.Cl | 7.79%
33 | CCc1c(C)nc(N)nc1N1N=C1SCC#N | -3.92%
34 | O=C(C1CCN(S(=O)(=O)c2cnc[nH]2)CC1)N1CCN(c2ccc([N+](=O)[O-])cc2)CC1 | 14.5%
35 | Cc1ncoc1C(=O)NC1CC(C)(C)Cc2c1cnn2-c1ccc(F)cc1 (centres unmarked) | 4.88%
36 | CSC1CCCCC1(O)CSc1nc2ccccc2o1 (centres unmarked) | 12.1%
37 | CCN(CC)S(=O)(=O)c1ccc(N2CCOCC2)c(NC(=O)C2COc3ccccc3O2)c1 (centres unmarked) | 11.1%
38 | O=C(CCn1ccc2ccccc21)Nc1ccc(N2CCOCC2)cc1 | 13.5%
39 | Cn1c(CSc2ncn[nH]2)nc2ccccc21 | 7.98%
40 | CCOC(=O)C1CCCN(C(=O)c2cc3cc(Br)ccc3oc2=O)C1 (centres unmarked) | 9.44%
41 | O/N=C(\COc1ccccc1O)c1ccccc1 | -0.796%
42 | COc1ccccc1/C=C/c1nc2ccccc2c(=O)o1 | 10.8%
43 | O=C(Nc1cccc([N+](=O)[O-])c1)Nc1ccc2c(c1)OCCO2 | 8.42%
44 | CC(C)N1C(=O)CCC1C(=O)NCc1ccccc1Cl (centres unmarked) | 11.8%
45 | Cc1ccc(OCC(=O)N/N=C/c2cccn2C)cc1C | 6.4%
46 | NC(=NC(=O)c1ccc(OCC(F)(F)F)nc1)c1ccc(Cl)cc1 | 15.5%

Row | SMILES | hERG current change (%, negative = inhibition) at 1uM
47 | CC(=O)N1CCC(=NNc2ncc(C(F)(F)F)cc2Cl)CC1 | 12.8%
48 | CCOC(=O)CNC(=O)N1CCCC(C(=O)c2cccc(Cl)c2)C1 (centres unmarked) | 1.62%
49 | CCOC(=O)/C(C#N)=C/c1cccc(F)c1 | 1.58%
50 | C(=N/Nc1nccs1)/c1cccnc1 | 0.759%
51 | COCc1cc(NCc2ccc(Cl)cc2)nc(C)n1 | 6.57%
52 | CN(C)c1ccc(C(=S)N2CCN(C(=S)Nc3cccc4ccccc34)CC2)cc1 | 5.38%
53 | O=c1c(/C=C(\O)c2ccc(F)cc2)nc2ccccc2n1-c1ccccc1 | 8.74%
54 | FC(F)(F)c1cccc(Cc2noc(CN3CCCC(OCc4ccccn4)C3)n2)c1 (centres unmarked) | -20.7%
55 | O=[N+]([O-])c1cc(S(=O)(=O)C(F)(F)F)ccc1Sc1nc2ccccc2[nH]1 | 11%
56 | O=C(CNC(=O)c1ccco1)NCc1nc2ccccc2[nH]1 | 9.41%
57 | CC(C)CCNC(=O)CCNS(=O)(=O)c1ccc(Cl)cc1 | 0.252%
58 | COc1ccc(Nc2nc(N)nc(CSc3nnc(N)s3)n2)cc1 | 20.7%
59 | CCn1c2ccccc2c2nnc(SCCN3CCCCC3)nc21 | -1.75%
60 | C=CC#CC1(O)CC(C)[N+](C)(C)CC1C.[I-] (centres unmarked) | 8.86%
61 | Cc1c(C(=O)NCCSCc2cccc(C(F)(F)F)c2)cnn1-c1ccc(F)cc1 | -8.68%
62 | COc1ccccc1CNC(=O)COC(=O)Cc1c[nH]c2ccccc12 | 5.17%
63 | CCCCOC(=O)CCCN1C(=O)/C(=C2\SC(=S)N(CCCC(=O)OCCCC)C2=O)SC1=S | 6.38%
64 | CCOc1ccc(CC(=O)NCc2ccc3c(c2)cc(C)n3C)cc1 | 3.92%
65 | CCc1nc(SCC(=O)O)c(C#N)c2c1CCCC2 | 11.3%
66 | CCOC(=O)c1c(C)n(CC(O)c2ccccc2)c2ccc(O)cc12 (centres unmarked) | 13.6%
67 | O=C(O)CC12CC3CC(C1)CC(n1ncc(NCc4ccc(F)cc4)c(Cl)c1=O)(C3)C2 | -10.5%
68 | O=c1c([N+](=O)[O-])cc(C(F)(F)F)cn1Cc1c(Cl)cccc1Cl | 13%
69 | COc1ccc(OC)c(C(=O)c2coc3ccc(OC)cc23)c1 | -3.13%

Row | SMILES | hERG current change (%, negative = inhibition) at 1uM
70 | CCCCCOc1ccc(N2C(=O)CC(N(O)c3ccccc3)C2=O)cc1 (centres unmarked) | 16.9%
71 | Cc1ccc(C)c(N(C(=O)c2csnn2)C(C(=O)NC2CCCC2)c2ccncc2)c1 (centres unmarked) | 18.7%
72 | O=C(O)C1CC=CCC1C(=O)NCCc1csc(-c2ccccc2)n1 (centres unmarked) | -15.3%
73 | COc1ccccc1CCCNC(=O)C1CCC(=O)N(CCc2cccc(F)c2)C1 (centres unmarked) | -6.96%
74 | Cc1ccc(-c2nnn(CC(=O)N(Cc3ccccc3F)C(C(=O)NC3CCCC3)c3ccncc3)n2)o1 (centres unmarked) | 9.61%
75 | CCCCn1c(O)c(C(C)=NCCCN(CC)CC)c(=O)[nH]c1=O | 2.51%
76 | CCOC(=O)c1sc(NC(=S)NC(=O)c2ccc(OC)cc2)nc1C | 14.3%
77 | Cc1cccc(NC(=O)c2ccc(Cl)c(NC(=O)c3ccncc3)c2)c1C | 6.41%
78 | O=C(COC(=O)c1cccc(O)c1)c1ccccc1 | 4.84%
79 | Cc1cccc2cc(CN(CC3CCCO3)C(=O)c3cccnc3)c3nnnn3c12 (centres unmarked) | 11.5%
80 | COc1ccc(N(CC(=O)NCCSCc2ccccc2Cl)S(C)(=O)=O)cc1Cl | 10.1%
81 | COC(=O)C(C(=O)OC)C(C(C)C)C(C(=O)OC)C(=O)OC | 7.91%
82 | NC(=O)C1CCN(C(=O)CSc2nc(O)cc(=O)[nH]2)CC1 | 5.35%
83 | CC(C)c1cccc(C(C)C)c1O | 15.3%
84 | O=C(Nc1nnc(Cc2c[nH]c3ccccc23)s1)c1ccc(Cl)cc1Cl | 11.8%
85 | CSc1ccccc1OCc1cc(C(=O)N(C)CC2COCCO2)no1 (centres unmarked) | 10.4%
86 | COC(=O)c1ccc(OCC(=O)c2cccc(OC)c2)cc1 | 12.6%
87 | Cc1ccc(NC(=O)C2Cc3ccccc3C(=O)O2)cc1 (centres unmarked) | 7.98%
88 | COc1ccccc1-c1nnc(NC(=O)C(C)C)s1 | 12%
89 | CN(C)c1nc2c(c(=O)[nH]c(=O)n2C)n1CCCc1ccccc1 | 0.828%
90 | Cc1ccc(C2=CC(=O)C[C@H](c3ccc(Cl)cc3)C2)cc1 | 10.4%
91 | CC(C)Oc1cc(NC(=O)CS(=O)(=O)CC(=O)N(C)C)c(Cl)cc1Cl | 14.3%
92 | Cc1cccc(N2CCN(S(=O)(=O)c3ccc(-c4ccc(=O)[nH]n4)o3)CC2)c1C | 9.13%
